# Test results taken from PubChem BioAssay AID894 (National Center for Advancing Translational Sciences (NCATS), 2007).
# Hit rate of the full screen: of about 150,000 compounds, about 6,500 (4.3%) were called active. The inconclusive results got no clear call from the source; some entries with a clear call stand among them for comparison. Calls come from the whole dose curve; as a rule, active = well fitted inhibition curve with a large enough effect (not every such curve was filed as active); inconclusive = small, poorly fitted or top-dose-only effect, or another doubt; inactive = no such curve, though single readings can be large or run the other way. No potency is given beside an inconclusive call; the fits are too rough.
# Target: 15-hydroxyprostaglandin dehydrogenase [NAD(+)] (Homo sapiens) (UniProt P15428)
# Test: qHTS Assay for Inhibitors of HPGD (15-Hydroxyprostaglandin Dehydrogenase)
# Settings: purified HPGD, NADH fluorescence kinetic, PGE2 substrate; activity change, negative = inhibition: stronger effect = lower value
# Outline: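 NADH formation kinetics: reaction with 30 uM PGE2 and 1 mM NAD+ (final), 20 nM enzyme, Tris-HCl pH 8 with Tween 20, after 15 min compound preincubation at room temperature. Fluorescence change, last versus first of five reads.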
# % is set by controls: 0 for no effect and ±100 for the full control effect; potency is the fitted concentration of half-maximal effect; tags give direction and shape of the fitted curve.
# Chain of UniProt P15428 (P15428 whole entry, looked up): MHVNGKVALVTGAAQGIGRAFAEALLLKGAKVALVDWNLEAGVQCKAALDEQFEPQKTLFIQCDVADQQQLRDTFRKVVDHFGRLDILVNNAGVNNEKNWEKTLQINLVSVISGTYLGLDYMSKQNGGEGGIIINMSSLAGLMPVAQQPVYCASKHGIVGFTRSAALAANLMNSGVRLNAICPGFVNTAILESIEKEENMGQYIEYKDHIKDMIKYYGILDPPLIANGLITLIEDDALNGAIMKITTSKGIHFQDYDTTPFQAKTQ
SMILES,"activity change, negative = inhibition",Potency
CCc1cc(-c2n[nH]c(C)c2-c2ccc3c(c2)OCCO3)c(O)cc1O,inactive: -14.2%,
Cc1ccc(C)n1-c1ccc(C(=O)O)cc1,,"inconclusive [inhibitor, partial curve]"
CC(C)(C)C1CCC(=NNc2ccc(S(N)(=O)=O)cc2[N+](=O)[O-])CC1 (stereo not given),inactive: -17.9%,
CC(C)NC(=O)CC(c1ccccc1)c1cc(Br)ccc1O (stereo not given),,active: 25.1 µM
Cc1cnc(NC(=O)c2cc3c(s2)CCCC3)s1,,"inconclusive [inhibitor, partial curve]"
CCSc1nnc(NC(=O)CSc2nc3c(cc2C#N)CCCC3)s1,,"inconclusive [inhibitor, single point]"
CCc1ccc(OCCCOc2ccc(C=O)cc2)cc1,,"inconclusive [inhibitor, partial curve]"
CCOc1ccc(NS(=O)(=O)c2ccc3[nH]cc(C(=O)N(CC)CC)c(=O)c3c2)cc1,,"inconclusive [inhibitor, partial curve]"
CN(C)CC(C)(C)CNC(=O)c1ccc(Cc2nc3ccccc3[nH]2)cc1,inactive: -5.31%,
c1coc(-c2nc3nc4ccccc4nc3n2CC2CCCO2)c1 (stereo not given),,"inconclusive [inhibitor, partial curve]"
CCOC(=O)c1nn(-c2cccc(C)c2)c2nc(-c3ccccc3)c(C#N)c(=O)n12,,"inconclusive [inhibitor, single point]"
CCCCC1=CC2=C(OC(C)=O)C(=O)C(C)(OC(=O)c3ccc(Cl)nc3)C(=O)C2=CO1 (stereo not given),inactive: -7.33%,
COc1ccc(NS(=O)(=O)c2cc(C)ccc2C)cc1,,active: 14.1 µM
O=c1nc2ccccc2c2n1CC(CN1CCN(c3ccccc3F)CC1)N2 (stereo not given),inactive: -0.761%,
CSCSC1=C(C#N)C(c2ccccc2Cl)C(C(C)=O)=C(C)N1 (stereo not given),,"inconclusive [inhibitor, single point]"
CCCC(=O)Nc1ccc(S(=O)(=O)N2CCOCC2)cc1,inactive: -3.67%,
CCCN(CCC)C(=O)c1cc(-c2ccc3c(c2)OCO3)nc2ccccc12,,"inconclusive [inhibitor, partial curve]"
Cc1cccc(CNc2ncnc3ccc(-c4cccc(C#N)c4)cc23)c1,,"inconclusive [inhibitor, partial curve]"
O=C(c1cc2ncc(CCCl)cn2n1)N1CCCCCC1,,active: 1 µM
Cc1cc(N2CCN(c3ccccc3F)CC2)nc2cc(O)ccc12,,"inconclusive [inhibitor, partial curve]"
CCOC(=O)c1c(C)nc2c(c(SC)nn2-c2ccccc2)c1N,,"inconclusive [inhibitor, partial curve]"
CCn1c(CSc2nc3ccccc3s2)n[nH]c1=S,,"inconclusive [inhibitor, partial curve]"
O=C(CSc1ncccn1)NCc1ccccc1Cl,,"inconclusive [inhibitor, partial curve]"
O=C(CSc1nc2cc3ccccc3cc2[nH]1)Nc1ccc(F)cc1,inactive: -10.8%,

SMILES,"activity change, negative = inhibition",Potency
CSC(N)=NCCC[C@H](N)C(=O)O,inactive: -5.01%,
COc1ccc(CCN2CCCn3c2nc2c3c(=O)n(Cc3ccccc3F)c(=O)n2C)cc1OC,,"inconclusive [inhibitor, single point]"
Cc1ccc2cc(CCNC(=O)c3ccc(Br)o3)c(=O)[nH]c2c1,,active: 28.2 µM
Cc1cc(-c2n[nH]c(=S)n2/N=C/c2cc([N+](=O)[O-])ccc2Cl)n[nH]1,,active: 25.1 µM
Cc1ccc(-c2nn(-c3ccccc3)cc2/C=C/C(=O)Nc2nccs2)cc1,,"inconclusive [inhibitor, partial curve]"
O=C(CN1C(=O)c2cccc3cccc1c23)N1CCN(c2cccc(Cl)c2)CC1,,"inconclusive [inhibitor, single point]"
Cc1ccc(-c2nc3ccccc3o2)cc1NC(=O)Cc1cccs1,,"inconclusive [inhibitor, single point]"
O=S(=O)(c1ccc(F)cc1)N1CN(Cc2ccco2)c2nc3ccccc3nc21,,"inconclusive [inhibitor, partial curve]"
CCCNc1c(NC(C)=O)c(=O)oc2ccccc12,inactive: -9.3%,
Cc1cc(=O)oc2cc(NC(=O)CCC(=O)O)ccc12,,"inconclusive [inhibitor, partial curve]"
CCOC(=O)C1CCCN(c2c(NCCN3CCCCC3C)c(=O)c2=O)C1 (stereo not given),inactive: 1.77%,
Cc1ccccc1Nc1c(N)c(=O)oc2ccccc12,,active: 15.8 µM
COC(=O)c1ccc(Sc2ccc(Cl)cc2)c(N)c1,,"inconclusive [inhibitor, partial curve]"
NC(=O)c1c(-c2cccs2)csc1N,,"inconclusive [inhibitor, single point]"
CCCCn1nc2cc(C(=O)NC[C@@H]3CCCO3)ccc2c1OCC,,"inconclusive [inhibitor, partial curve]"
Cc1cccc2sc(NNC(=O)c3cc(-c4cccs4)nc4ccccc34)nc12,,"inconclusive [inhibitor, single point]"
Cc1c(Cl)c(C(=O)NC2CCCC2)nn1C,,active: 35.5 µM
CC(C)Cn1c(/C=C/c2ccco2)nc2ccccc21,,"inconclusive [inhibitor, partial curve]"
C/C(CC1CC2=C(CC1(C)C)C(C)(C)CCC2)=N\NC(N)=S (stereo not given),,"inconclusive [inhibitor, single point]"
Cc1ccc(NC(=O)NC(=O)N(c2ccccc2)S(C)(=O)=O)cc1,,"inconclusive [inhibitor, partial curve]"
Cc1cc(C(F)(F)F)c(C#N)c(SCC(=O)Nc2nc3cc(Br)ccc3s2)n1,,"inconclusive [inhibitor, partial curve]"
O=C(NCCc1nc2ccccc2[nH]1)/C(=C/c1ccc2c(c1)OCO2)NC(=O)c1ccc(Cl)cc1Cl,,"inconclusive [inhibitor, partial curve]"
C=CCN(c1ccc(C(=O)N2CCCC2)cc1)S(C)(=O)=O,,active: 20 µM
C[C@H]1[C@H]2CC[C@H]3C4CC=C5C[C@@H](N(C)C)CC[C@]5(C)C4CC[C@]23CN1C (stereo not given in full),inactive: -4%,

SMILES,"activity change, negative = inhibition",Potency
CN(C)c1ccc(C=Nc2ccc(N(C)C)cc2)cc1,inactive: -27.2%,
COC(=O)c1sccc1NC(=O)Cc1ccc(Br)cc1,,"inconclusive [inhibitor, partial curve]"
CC(=O)NC1Sc2ccccc2N=C1c1ccccc1 (stereo not given),,"inconclusive [inhibitor, single point]"
COC(=O)[C@@]1(Cc2ccc(F)cc2)[C@H]2c3cc(C(=O)N(C)C)n(Cc4ccc(C)o4)c3C[C@H]2CN1C(=O)c1ccccc1,,active: 17.8 µM
CCCOC(=O)CSc1nnc(-c2ccc(Cl)cc2Cl)o1,,"inconclusive [inhibitor, partial curve]"
N#Cc1ccc(OCC(=O)Nc2cc(S(=O)(=O)N3CCCCC3)ccc2N2CCCCC2)cc1,inactive: -8.57%,
Cn1c(C(=O)NCC2CCCO2)cc2c(=O)n3ccccc3nc21 (stereo not given),,"inconclusive [inhibitor, partial curve]"
Cc1oc2c(CN3CCCC3)c(O)ccc2c(=O)c1-c1ccccc1,,"inconclusive [inhibitor, partial curve]"
O=C(COC(=O)CCC(=O)c1ccc(F)cc1)Nc1ccc(N2CCOCC2)cc1,,active: 17.8 µM
CN(C)c1ccc(/C=N/NC(=O)c2ccco2)cc1,inactive: -8.35%,
CC1(OC(=O)c2ccco2)C(=O)C=C2C=C(c3ccsc3)OC=C2C1=O (stereo not given),,"inconclusive [inhibitor, partial curve, poor fit]"
Cc1c(N2C(=O)c3ccc4c5c(ccc(c35)C2=O)CC4)c(=O)n(-c2ccccc2)n1C,,"inconclusive [inhibitor, partial curve]"
Cc1cccc(CC(=O)Nc2cc(=O)n(C)c(=O)n2C)c1,inactive: -0.604%,
COc1ccc(NC(=O)c2ccc(-c3ccc(-c4noc(C)n4)cc3C)cc2)cc1N1CCN(C)CC1,,"inconclusive [inhibitor, partial curve]"
COc1ccc(CCNC(=O)CC2Nc3ccccc3NC2=O)cc1OC (stereo not given),,"inconclusive [inhibitor, single point]"
CCCCn1c(=O)nc2n(-c3ccccc3C)c3ccccc3cc-2c1=O,,"inconclusive [inhibitor, partial curve]"
Nc1c(C(=O)NCc2ccc(F)cc2)c2nc3ccccc3nc2n1CCCN1CCOCC1,,"inconclusive [inhibitor, partial curve]"
O=C(Oc1ccccc1Cl)c1ccc(N2CCOCC2)c([N+](=O)[O-])c1,,"inconclusive [inhibitor, single point]"
CSc1nc(Sc2cccc(Cl)c2)c2ccccc2n1,inactive: -18.5%,
COc1ccc(-n2c(=O)[nH]cc(C(=O)Nc3ccc4c(c3)OCCO4)c2=O)cc1,,"inconclusive [inhibitor, single point]"
CCCCCCNC(=O)C(C#N)c1nc2ccccc2nc1N1CCCC1 (stereo not given),,"inconclusive [inhibitor, single point]"
CC(C)(C)C1CCC(=NNC(=O)C(=O)NC2CCCCC2)CC1 (stereo not given),inactive: -12.9%,
